The full ranking holds about 110,000 compounds; the median of “z-score” is about -0.1, and the highest 2% start at about 2. This is one part of the list.
molecular target: Metabotropic glutamate receptor 8 (Rattus norvegicus) (UniProt P70579); assay: rat mGluR8 modulators via GIRK flux, primary screen, cell-based, thallium flux, HTS (AID 488969); conditions: HEK293 rat mGluR8, GIRK (G protein-gated inwardly rectifying potassium channel) thallium flux, FluoZin2; at 10 µM; stronger effect = higher value; submaximal glutamate (EC20) added with thallium
Sequence of UniProt P70579 (P70579 whole entry, looked up): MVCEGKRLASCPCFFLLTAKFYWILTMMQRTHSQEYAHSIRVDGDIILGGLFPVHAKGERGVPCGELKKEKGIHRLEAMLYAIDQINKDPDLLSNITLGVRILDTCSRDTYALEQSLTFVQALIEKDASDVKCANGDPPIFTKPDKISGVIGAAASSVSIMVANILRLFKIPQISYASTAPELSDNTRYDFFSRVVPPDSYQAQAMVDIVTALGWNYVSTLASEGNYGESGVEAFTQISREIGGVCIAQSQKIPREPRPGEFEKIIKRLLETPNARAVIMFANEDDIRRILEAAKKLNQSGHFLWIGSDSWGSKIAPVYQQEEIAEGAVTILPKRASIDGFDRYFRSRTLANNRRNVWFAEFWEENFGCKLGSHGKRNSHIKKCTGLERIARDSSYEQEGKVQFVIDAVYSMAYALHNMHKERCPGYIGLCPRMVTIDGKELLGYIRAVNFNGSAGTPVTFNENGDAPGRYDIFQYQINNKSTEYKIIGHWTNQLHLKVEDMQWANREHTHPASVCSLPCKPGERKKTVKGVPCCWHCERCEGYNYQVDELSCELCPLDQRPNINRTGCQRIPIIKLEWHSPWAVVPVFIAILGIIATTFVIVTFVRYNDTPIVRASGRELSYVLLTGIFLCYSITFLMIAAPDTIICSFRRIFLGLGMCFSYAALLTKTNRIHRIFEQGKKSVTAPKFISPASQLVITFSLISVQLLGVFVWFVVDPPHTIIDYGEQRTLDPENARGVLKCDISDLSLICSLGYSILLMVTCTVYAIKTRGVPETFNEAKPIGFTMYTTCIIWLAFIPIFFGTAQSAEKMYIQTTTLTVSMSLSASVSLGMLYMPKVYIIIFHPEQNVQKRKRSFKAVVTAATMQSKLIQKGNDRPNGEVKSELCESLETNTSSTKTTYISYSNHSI

SMILES	z-score
Cc1[nH]n(-c2ccccc2)c(=O)c1CCOC(=O)c1ccc(C(F)(F)F)cc1	0.903
CCn1nccc1C(=O)Nc1ccc(Cl)cn1	0.0113
Cc1ccc2nc(SC(C)C(=O)NC3CCCc4ccccc43)[nH]c2c1 (stereo not given)	-0.653
Cc1ccc(C)n1-n1cnc2sc3c(c2c1=O)CCC3	-0.669
CNc1nc(N)c([N+](=O)[O-])c(NCCO)n1	-0.289
CCOC(=O)N1CCN(C(=O)c2ccc(N(C)S(C)(=O)=O)cc2)CC1	0.9
COc1ccc(CN2C3CCCC2CC(NC(=O)Nc2cccc(C)c2)C3)cc1 (stereo not given)	0.234
CCOC(=O)COc1ccccc1C1Nc2ccccc2C(=O)N1c1cccc(Cl)c1 (stereo not given)	-0.577
CN(C)c1ccc(C2NCC(CCl)O2)cc1 (stereo not given)	-0.159
Cc1ccc(C(C(=O)NC2CCCCC2)N(C(=O)Cc2c[nH]c3ccccc23)c2ccccc2)o1 (stereo not given)	-0.122
COc1ccc(-c2n[nH]c(C)c2-c2ccc(OC)c(OC)c2)c(O)c1	-0.332
COC(=O)c1c(NC(=O)CN2CCCc3ccccc32)sc(C)c1C	-0.0545
O=C(N/N=C/C=C/c1ccccc1[N+](=O)[O-])c1cc(-c2ccccc2)n[nH]1	0.153
CCCCOC(=O)C1=C(C)Nc2nnnn2C1c1ccccc1Cl (stereo not given)	-1.64
c1ccc(-c2ncc(CSc3nncn3-c3ccccc3)s2)cc1	-0.325
CC1CN(C(=O)CSc2nc(-c3ccc(F)cc3)cs2)CC(C)O1 (stereo not given)	-0.898
Cc1c(C(=O)N2CCCCC2)sc(NC(=O)C(C)C)c1C#N	0.972
Cc1onc(-c2ccccc2Cl)c1C(=O)N1CCc2ccccc2C1	-0.95
COc1ccc(NC(=O)c2ccccc2NC(=O)CSc2ccc(Cl)cc2)cc1	0.0857
COc1ccc(N(CC(=O)Nc2ccc3c(c2)OCO3)S(=O)(=O)c2ccccc2)c(OC)c1	-0.555
CCCCN(C(=O)Cn1nnc2ccccc21)C(C(=O)NCCOC)c1cccs1 (stereo not given)	1.44
CCOC(=O)c1c(Cc2ccc(Cl)cc2)c[nH]c1C	-0.453

SMILES	z-score
Cc1nc2ccc(C(=O)N3CCN(c4ccccn4)CC3)cc2s1	0.0972
CCc1nnc(NC(=O)C2CCN(S(=O)(=O)Cc3ccccc3)CC2)s1	-0.126
COc1cccc(OC)c1C(=O)Nc1nnc(C(C)C)s1	0.62
Cc1cc(C(=O)Nc2nc3c(C)cccc3s2)c(C)o1	-0.249
O=C(Nc1cccc(NC(=O)c2cccnc2)c1)c1cccnc1	-0.515
CC(=O)C1=NN(c2ccccc2)C(c2cccs2)N1c1ccc(N(C)C)cc1 (stereo not given)	0.04
CCCn1c(CC)nc([N+](=O)[O-])c1Sc1ccc(C)cc1	-0.237
CCn1cc(C(=O)Nc2cc3c(cc2NC(C)=O)OCCO3)c(=O)c2ccc(C)nc21	-0.248
C=CCN(C(=O)Cn1nnc2ccccc21)C(C(=O)NCCOC)c1ccc(OC)cc1OC (stereo not given)	0.024
COc1ccc(Cn2nnnc2C(C(C)C)N2CCN(c3ccccc3OC)CC2)cc1 (stereo not given)	-0.562
CC(C)(C)c1ccc(-c2c(C#N)c(N)nc3c2CCCC3)s1	-0.139
O=C(N/N=C/c1cn(-c2ccccc2)nc1-c1ccccc1)c1ccco1	-0.161
CCOc1cc(CNc2ccc3c(c2)OCCO3)cc(Br)c1OCC	0.325
Cc1ccc2[nH]c3c(=O)n(Cc4ccccn4)cnc3c2c1	-0.645
CCC(=O)Nc1nnc(CCc2ccccc2)s1	-0.331
CCCC(=O)Nc1ccc(C(=O)NCc2ccccc2Cl)cc1	0.219
Cc1cc(=O)oc2cc(OC(=O)CCCCCN3C(=O)c4ccccc4C3=O)ccc12	-0.272
Cc1c(NC(=O)CSc2nc3ccccc3s2)c(=O)n(-c2ccccc2)n1C	-1.17
CCOC(=O)c1c2c(c(=S)n(-c3ccccc3)c1N)CCC2	-0.0535
Cc1onc(-c2c(F)cccc2Cl)c1C(=O)N1CCc2ccccc21	0.0163
CC(C)Oc1ccc(C(=O)NNC(=O)c2ccccc2C(=O)O)cc1	0.741
O=C(/C=C/c1ccccc1)CC(O)(c1ccccc1)C(F)(F)F (stereo not given)	-0.548

SMILES	z-score
Clc1ccc(CSc2nnc3ccccn23)c(Cl)c1	-4.51e-05
COC(Cc1n[nH]c(=S)n1-c1ccc(Cl)cc1)OC	-0.147
Cn1c(SCc2ccc(Br)cc2)nnc1-c1ccncc1	-0.143
CCOC(=O)c1sc2cc([N+](=O)[O-])cc(SCC(C)C)c2c1N	0.221
Cc1cc(N)ccc1N=Nc1c(C)n(C)n(-c2ccccc2)c1=O	-0.136
COc1ccc(-c2nc(SCC(=O)Nc3cc(C)on3)n[nH]2)cc1	-0.536
COc1ccc(/C=C/c2ccncc2)cc1	0.357
COC(=O)c1ccc(C(=O)OC)c(NC(=O)COC(=O)C2CCC(C(C)(C)C)CC2)c1 (stereo not given)	0.00256
COc1ccccc1Oc1cc(F)nc(N)n1	-0.0954
Cc1ccc(C)c(N(CC(N)=O)S(C)(=O)=O)c1	-0.254
CC(=O)Nc1cccc(Oc2cc(C#N)c(C#N)cc2N2CCOCC2)c1	-0.086
COc1cc(Br)c(S(=O)(=O)Nc2c(C)n(C)n(-c3ccccc3)c2=O)cc1OC	-0.396
N#CC1=C(N)OC2=C(C(=O)CCC2)C1CCc1ccccc1 (stereo not given)	-0.153
C=CCn1c(SCC(=O)NC(=O)NC2CCCC2)nnc1C1CCCCC1	-0.691
CCc1ccc2c(CN(CC)Cc3nc4ccccc4c(=O)[nH]3)cc(=O)oc2c1	-0.389
CCOc1cc(C2Nc3cccc4cccc(c34)N2)ccc1O	-1.37
COC(=O)c1ccc(CSc2nc3c(cnn3-c3ccc(Cl)cc3)c(=O)[nH]2)o1	-0.236
Cc1ccc(Nc2nc(N)nc(CN3CCc4ccccc4C3)n2)cc1	0.216
O=C(Cn1ncc2c1-c1ccccc1OC2)Nc1ccc(Cl)cn1	-0.092
COc1ccc(N=c2scc(-c3ccc(OC)cc3)n2CCO)cc1	-0.174
CCCN1Cc2cccc(C(=O)Nc3ccc(CC)cc3)c2C1=O	-0.0573
CCOC(=O)c1ccc(N/C(=N\S(=O)(=O)c2ccc(F)cc2F)c2ccccc2)cc1	-0.265

SMILES	z-score
CCc1c(C#N)c(SCCC(=O)Nc2ccc(C)cc2)nc2c1C(=O)CC(C)(C)C2	-0.656
Cc1cc(C)n(C(=O)c2cc3c(s2)CCCC3)n1	-0.378
Cc1ccc(NC(=O)CSc2nnc(-c3ccccn3)n2C)cc1	-0.197
CCN(C(=O)c1cn(C)c(=O)c2cc(OC)c(OC)cc12)c1ccccc1C	-0.294
Cc1oc(-c2cccc(Cl)c2)nc1CN1CCCC(C(=O)NCc2ccco2)C1 (stereo not given)	-0.867
CCOC(=O)c1cn(-c2ccccc2CO)c2c(F)c(F)c(F)cc2c1=O	-0.237
Cc1[nH]c(=O)[nH]c(=O)c1S(=O)(=O)N1CCCC1	-0.107
CCCCN(C(=O)CSc1nnc(Nc2ccc(C)c(C)c2)s1)c1c(N)n(Cc2ccccc2)c(=O)[nH]c1=O	0.0297
Cc1ccc(N(C(=O)C2CCC(=O)N2)C2(C(=O)NC3CCCC3)CCCCC2)cc1 (stereo not given)	0.0276
CCOC(=O)c1ccc2c(c1)nc(SCc1cn3ccsc3n1)n2CC	-2.52
O=C(NNc1cccc(Cl)n1)c1c(Cl)cccc1Cl	-0.0235
COc1ccc(OC)c(NC(=O)CSc2nc3cccnc3n2C)c1	-0.242
O=C(CCC(=O)N1CCCC1)Nc1nnc(C(F)(F)F)s1	1.45
C=CCn1c(=O)c2ccccc2n2c(SC(C)C(=O)Nc3nc(-c4ccccc4)cs3)nnc12 (stereo not given)	1.12
CC(C)NCCOCCSc1ccc(Cl)cc1	0.335
CSC1=NCCN1C(=O)c1ccc(Br)o1	0.631
Cc1cc(C)c(NC(=O)Cc2ccc(-n3cccc3)cc2)c(C)c1	0.0542
Cc1ccc(N=CC2=C(O)CC(C)(C)CC2=O)nc1	-0.136
COc1ccc(CNC(=O)CN(Cc2ccccc2)S(=O)(=O)c2ccc(Cl)cc2)cc1	-0.547
Cc1cc(-c2n[nH]c(=S)n2/N=C/c2cccc([N+](=O)[O-])c2)n[nH]1	-0.221
CCc1c(C)nc(SC(C(=O)O)c2ccccc2)c(C#N)c1C (stereo not given)	-0.69
O=C(Cn1nc(CNc2ccc(Cl)cc2)[n+]2c1CCCCC2)c1ccc(Cl)cc1	-0.172

SMILES	z-score
O=[N+]([O-])/C=C/c1cn(Cc2ccc(Cl)cc2)c2ccccc12	-0.16
COc1ccc(C2c3c(C)nn(-c4ccccc4)c3NC(=O)N2c2ccccc2)cc1 (stereo not given)	-0.155
Cc1c(C(=S)Nc2ccccc2)cnn1-c1ccc([N+](=O)[O-])cc1	-0.283
O=C(CCN1C(=O)C2C3C=CC(C3)C2C1=O)N1CCN(c2ccccn2)CC1 (stereo not given)	0.834
COc1ccc(NS(=O)(=O)c2ccc(NC(C)=O)cc2)cc1OC	-0.16
COC(=O)c1cc2sccc2n1Cc1nc(-c2ccc(Cl)cc2)oc1C	-0.154
CCOC(=O)c1c(-c2cccs2)csc1NC(=O)CN(CC)CC	-0.944
Cc1ccc(SC/C(O)=C(\C#N)c2nc3ccccc3s2)cc1	-1.38
O=S(=O)(Nc1nc2c(s1)CCCC2)c1ccc(F)cc1	0.267
O=C(CN1C(=O)NC2(CCCCCCC2)C1=O)NC1CCCc2ccccc21 (stereo not given)	-0.288
CC(=O)NC(=O)c1nnn(Cc2ccccc2)c1NC(C)=O	0.442
N#C/C(C(=O)Oc1ccccc1)=C1/Nc2ccccc2-c2ccccc21	0.303
O=C(Nc1ccc(-c2nc3cc(Cl)ccc3o2)cc1)C1CCCO1 (stereo not given)	0.417
O=C(N/N=C/c1ccco1)c1ccccc1OCc1ccc(Br)cc1	-0.577
Cc1cc(C)nc(N/N=C/C(Cl)=C/c2ccccc2)n1	0.0852
O=C(CN1C(=O)/C(=C\c2cccc(F)c2)Oc2ccccc21)N1CCN(c2ccccn2)CC1	0.117
CCCCN(N=Nc1nonc1OC)c1nonc1OC	-0.795
COc1ccccc1OC1=NS(=O)(=O)c2ccccc21	-0.276
CCc1ccccc1S(=O)(=O)Cc1ccc(C(=O)N2CCN(c3ccccn3)CC2)o1	-0.522
CCN(CC#CCC(O)(c1ccccc1)C1CCCC1)C(C)C (stereo not given)	0.221
ONC(=Nc1ccccc1)C(=Nc1ccccc1)NO	-0.64
O=C(CSc1nc2cc(Cl)ccc2s1)Nc1cccc(S(=O)(=O)N2CCOCC2)c1	0.779
